Laboratory results reported in the supplement of paper PMC4604168 (melanoma cell lines).
This is one part of the list. Single values are uncertain, as repeats are few or missing.

The compounds below were run on MeWo (assay: cell count relative to DMSO control; melanoma cells; higher = more viable cells). Conditions: library dose: low library concentration; 72 h; first compound 0.4 µM.
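Also: cell number obtained by counting DAPI-stained nuclei in high-throughput microscope images with image analysis software, screen run in 1,536-well plates.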

SMILES | cell count
Cn1sc(=O)n(Cc2ccccc2)c1=O + c1cc(-c2cnn3cc(-c4ccc(OCCN5CCCCC5)cc4)cnc23)ccn1 [Dorsomorphin] (partner dose 0.4 µM) | 107%
C[C@@H](N)c1ccc(C(=O)Nc2ccnc3[nH]ccc23)cc1 + Oc1nc(-c2ccc(C(F)(F)F)cc2)nc2c1CSCC2 [XAV939] (partner dose 2 µM) | 75.6%
CCCCCCCCCCCCCCCCCCOP(=O)([O-])OC1CC[N+](C)(C)CC1 [Perifosine] + Cn1cc(/C=C2\C(=O)Nc3cccnc32)c2ccccc21 [GW441756] (partner dose 0.4 µM) | 105%
C[C@@H](N)c1ccc(C(=O)Nc2ccnc3[nH]ccc23)cc1 + CN(NC(=O)CC(=O)NN(C)C(=S)c1ccccc1)C(=S)c1ccccc1 [STA4783] (partner dose 0.006 µM) | 37.2%
C[C@@H](N)c1ccc(C(=O)Nc2ccnc3[nH]ccc23)cc1 + COc1cc2ncnc(Nc3ccc(Oc4ccccc4)cc3)c2cc1OC [SrcI1] (partner dose 2 µM) | 83.6%
Cn1sc(=O)n(Cc2ccccc2)c1=O + N#Cc1c(O)c2c(-c3ccc(-c4ccccc4O)cc3)csc2[nH]c1=O [A769662] (partner dose 2 µM) | 101%
CCCCCCCCCCCCCCCCCCOP(=O)([O-])OC1CC[N+](C)(C)CC1 [Perifosine] + c1cc(-c2cnn3cc(-c4ccc(OCCN5CCCCC5)cc4)cnc23)ccn1 [Dorsomorphin] (partner dose 0.4 µM) | 89.4%
